# In publication PMC4336329 (PLoS ONE, 2015):
# Screen size: about 310,000 compounds; about 14,000 (4.5%) showed an effect of 50% or more. Effects have a minus sign here. Some of the results follow.
# Biological target: human ether-à-go-go-related gene (hERG) potassium channel (human, UniProt Q12809)
# Assay: primary screen, population patch clamp on CHO cells stably expressing hERG
# 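Further: peak tail current of the secondary pulse compared with the same well before compound.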
# Chain of human ether-à-go-go-related gene (hERG) potassium channel (Q12809 whole entry, looked up): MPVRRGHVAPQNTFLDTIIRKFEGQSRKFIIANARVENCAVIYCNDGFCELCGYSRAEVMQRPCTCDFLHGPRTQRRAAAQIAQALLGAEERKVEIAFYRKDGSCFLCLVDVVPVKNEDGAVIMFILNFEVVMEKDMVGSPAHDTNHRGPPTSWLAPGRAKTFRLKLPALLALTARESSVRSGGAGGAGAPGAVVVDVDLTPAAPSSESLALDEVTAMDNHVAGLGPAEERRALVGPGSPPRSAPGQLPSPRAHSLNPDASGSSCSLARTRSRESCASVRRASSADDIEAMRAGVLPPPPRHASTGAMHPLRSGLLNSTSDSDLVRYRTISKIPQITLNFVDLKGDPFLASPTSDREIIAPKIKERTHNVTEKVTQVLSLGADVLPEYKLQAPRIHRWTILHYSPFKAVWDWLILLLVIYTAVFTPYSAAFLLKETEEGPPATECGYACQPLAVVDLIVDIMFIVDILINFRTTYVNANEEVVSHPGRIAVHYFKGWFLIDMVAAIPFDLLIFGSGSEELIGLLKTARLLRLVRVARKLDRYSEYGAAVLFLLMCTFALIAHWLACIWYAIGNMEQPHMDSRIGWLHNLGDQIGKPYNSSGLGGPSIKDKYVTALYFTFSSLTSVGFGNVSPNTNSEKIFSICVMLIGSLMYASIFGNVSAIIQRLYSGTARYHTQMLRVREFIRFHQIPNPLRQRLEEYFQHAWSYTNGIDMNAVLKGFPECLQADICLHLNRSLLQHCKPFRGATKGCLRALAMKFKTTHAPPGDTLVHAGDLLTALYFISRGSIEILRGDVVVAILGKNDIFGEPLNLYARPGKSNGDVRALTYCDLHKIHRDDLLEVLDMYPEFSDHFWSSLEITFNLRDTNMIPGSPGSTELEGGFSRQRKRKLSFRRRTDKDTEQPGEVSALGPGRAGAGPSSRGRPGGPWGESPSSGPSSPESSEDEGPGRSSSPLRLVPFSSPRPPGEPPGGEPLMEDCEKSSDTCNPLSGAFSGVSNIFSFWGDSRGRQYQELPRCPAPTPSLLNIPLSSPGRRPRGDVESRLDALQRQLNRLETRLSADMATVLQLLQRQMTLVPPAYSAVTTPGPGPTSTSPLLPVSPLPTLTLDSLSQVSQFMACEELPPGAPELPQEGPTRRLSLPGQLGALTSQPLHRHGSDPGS
row,Compound,"hERG current change (%, negative = inhibition) at 10uM"
1,Cc1nnc(-c2ccccc2)o1,18.7%
2,Cc1ccc(OCCSC2=NN2c2cc(C)nc(N)n2)cc1,-15.1%
3,CCOC(=O)C1(Cc2ccccc2C)CCCN(S(C)(=O)=O)C1 (stereo not shown),16.5%
4,CCCCCCC1CC(CCc2nc(=S)[nH][nH]2)C(=O)O1 (stereo not shown),10.9%
5,COC(=O)c1ccccc1NC(=S)NC(=O)C1CCCCC1,-3.24%
6,CCN1CCN(CC(=O)Nc2cc(C)c(C)cc2[N+](=O)[O-])CC1,-25.7%
7,COc1ccc(S(=O)(=O)N2CCC(C(=O)N3CCOCC3)CC2)cc1Cl,3.74%
8,Cc1ccc(C(=O)c2ccccc2C(=O)O)c(O)c1,1.4%
9,N#Cc1ccc(C2=CC(=O)C[C@H](c3ccc4c(c3)OCO4)C2)cc1,-70%
10,Cc1ccsc1C(=O)N1CCc2ccccc2C1,1.54%
11,CC(C)(C)NC(=O)NC(=O)COC(=O)CNC(=O)C1CCCCC1,6.73%
12,Cc1cccc(-c2nc(C#N)c(N3CCC(C)CC3)o2)c1,15.6%
13,CCOC(=O)c1ccccc1NC(=O)COC(=O)CCC(=O)c1ccc(C)cc1,2.2%
14,C[C@@H]1CC=C[C@H]2[C@H]1C(=O)N(Cc1ccccc1)[C@H]2c1ccc(-c2ccc(F)cc2)cc1F,-0.198%
15,Nc1cccc2cnccc12,17.5%
16,CC(C)CC(NC(=O)C1CCC(C)CC1)C(=O)NCCN1CCOCC1 (stereo not shown),14.5%
17,CN=CC1=C(O)c2ccccc2C1=O,14.7%
18,Clc1cccc2sc(N3CCN(c4ccccc4)CC3)nc12,6.53%
19,Cc1ccc(NC(NC(=O)c2cccs2)C(Cl)(Cl)Cl)cc1 (stereo not shown),17.2%
20,CSc1ccc(C(=O)NC2CCSc3ccccc32)cc1 (stereo not shown),14.4%
21,Cc1cccc(C(=O)c2cn[nH]c2-c2ccc(C)cc2O)c1,17.7%
22,Cc1ccc(S(=O)(=O)c2cc(OC(=O)c3ccco3)ccc2OC(=O)c2ccco2)cc1,-3.98%
23,Cc1cccc(Oc2coc3cc(OC(=O)c4cccs4)ccc3c2=O)c1,6.35%

row,Compound,"hERG current change (%, negative = inhibition) at 10uM"
1,COCC(C)NC(=O)C1CC(c2cccc(Br)c2)=NO1 (stereo not shown),17.9%
2,Cc1ccc(NC(=O)CN(C)C2CCCCC2)cc1Cl.O=C(O)C(=O)O,-7.7%
3,Cc1noc(NC(=O)c2c(-c3c(Cl)cccc3Cl)noc2C)c1[N+](=O)[O-],2.58%
4,CS(=O)(=O)N1CCN(c2ccnc3cc(Cl)ccc23)CC1,-78.6%
5,COc1ccc(OC)c(-c2csc(NC(=O)CSc3nnnn3C)n2)c1,4.17%
6,C/C(=N\O)C(C)(C)Nc1ccc(F)cc1,10.3%
7,Cc1ncc([N+](=O)[O-])n1CC(=O)Nc1cccc(C(F)(F)F)c1,5.92%
8,Cc1ccc2nc(C3CCN(C(=O)NCc4ccccc4)CC3)[nH]c2c1,-30%
9,COC(=O)C1NN=C(C(=O)c2ccccc2)C1c1ccccc1 (stereo not shown),6.71%
10,CCSc1cnn(-c2ccccc2)c(=O)c1Cl,6.67%
11,CC(Cc1ccccc1)NC(=O)NC(C)Cc1ccccc1 (stereo not shown),7.17%
12,CNC(=O)CSc1nc(SC)ns1,12.2%
13,CN1C(=O)/C(=C/c2cccc([N+](=O)[O-])c2)C(=O)N1c1ccccc1,15%
14,NS(=O)(=O)c1ccc2nc(NC(=O)CS(=O)(=O)c3ccc(F)cc3)sc2c1,22.4%
15,C=CCNC(=O)c1ccc(Sc2ccccc2)c([N+](=O)[O-])c1,6.15%
16,Cc1cc(N/N=C/c2ccccc2)nc(NCc2ccccc2)n1,-2.93%
17,CCN1/C(=C/c2cc[n+](CCCS(=O)(=O)[O-])c3ccccc23)Sc2ccccc21,12.1%
18,Nn1c(=S)[nH]c2sc3c(c2c1=O)CCCC3,20.4%
19,CCOC(=O)N/N=C/c1c(F)c(F)c(F)c(F)c1F,11.8%
20,CSc1nc2ccc(S(=O)(=O)N3CCCCC3)cc2s1,4.83%
21,O=C(CSc1nc2ccccc2[nH]1)NCc1ccccc1,-1.37%
22,O=C(Cc1ccccc1)N/N=C/c1cccnc1,20.3%
23,COc1ccc(CC2(CO)CCN(Cc3cc4ccccc4o3)CC2)cc1,-52.2%
